The target of experiment [1] is T1, EphA5 ligand binding domain (LBD) (human, UniProt P54756 60-238).
T1 construct: Cloned into pET32a; also called EphA5 LBD
Description: NMR titration; 1H-15N HSQC of 15N-labelled VAPB protein (50 uM) with unlabelled NS5B or Eph protein added at different molar ratios (increment 0.5 for C-linker and Eph); 10 mM phosphate buffer pH 6.8, 25 C, 800 MHz; CSD tracings fitted with a one binding site model for residue-specific Kd. The note with it: both partners purified.

In experiment [2] the target is T2, EphA2 ligand binding domain (LBD) (human, UniProt P29317 28-206).
T2 construct: Cloned into pET32a; also called EphA2 LBD
Described as above. The note with it: both partners purified.

Drawing on publication PMC4718513, “C-Terminal Auto-Regulatory Motif of Hepatitis C Virus NS5B Interacts with Human VAPB-MSP to Form a Dynamic Replication Complex” (PLoS ONE, 2016), this text covers Kd for one molecule.

A word on the Kd: it is the free concentration of one partner at which half of the binding sites on the other are occupied at equilibrium, for simple one-to-one binding.

B1: VAPB-MSP domain, MSP([…]) (domain or fragment)
chain: not shown
modifications: 15N-labelled
notes: human VAPB, N-terminal major sperm protein (MSP) domain, […]; amplified from HeLa cell cDNA library; Cloned into a modified pET32a vector; source: 15N-labelled in M9 medium
With B1, the results for the Kd in experiment [1] and in experiment [2] were 66.2 µM and 10.3 µM, respectively.
